Measurements published in PubChem BioAssay AID463173 (ICCB-Longwood Screening Facility, Harvard Medical School, 2010).
In all, about 52,000 compounds went through this assay and about 4,300 (8.3%) were called active. No stated cut-off is given here; in the data, active means survival mostly below about 52% (no sharp cut-off); inactive means mostly above about 56%. The list shows a part of the results.

System: DeltatarO mutant
Assay: S. aureus survival, RN4220 and DeltatarO strains – OD600, teichoic acid synthesis inhibitors, primary screen (AID 463173)
Settings: S. aureus RN4220 wild type/DeltatarO growth, OD600, 18 h, hits give low values, screened at 18.75 µg/mL (by protocol)

Compound | survival
CC(C)(C)n1cnc2cc(N=Cc3ccccc3O)ccc21 | inactive: 81%
O=S(=O)(NCC(c1ccco1)N1CCN(c2ccc(F)cc2)CC1)c1cc(F)ccc1F (stereo not given) | inactive: 86%
COc1ccc(OC)c(CCNc2nc3cc(OC)c(OC)cc3c3nc(-c4cccnc4)nn23)c1 | inactive: 126%
COC(=O)c1ccc2c(c1)N(CC(=O)Nc1ccc(C)c(C)c1)C(=O)c1ccccc1S2 | inactive: 88%
CCS(=O)(=O)N1CCc2cc(C(=O)Nc3cc(C)cc(C)c3)ccc21 | inactive: 80%
Cc1ccc(C)c(N2CCN(C(=O)NCc3noc4ccccc34)CC2)c1 | inactive: 51%
COc1ccc2oc(=O)c(C(=O)NCc3ccco3)cc2c1 | inactive: 100%
Cc1cc2oc(C(=O)Nc3sc4c(c3C(=O)NCC3CCCO3)CCCC4)cc(=O)c2cc1C (stereo not given) | active: 47%
Cc1ccc2nc(Nc3cccc(C(F)(F)F)c3)c3nnnn3c2c1 | inactive: 89%
COc1ccc(N2CCN(C(=O)c3cn(C)c4ccc(S(=O)(=O)N5CCOCC5)cc4c3=O)CC2)cc1 | inactive: 85%
CCC1Oc2ccccc2N(CC(=O)NCc2ccccc2)C1=O (stereo not given) | active: -1%
Cc1cc(Nc2cccc(Cl)c2)nc2ccc(NC(=O)Cc3c(F)cccc3Cl)cc12 | inactive: 92%
Cn1c(=O)c(=O)n(C)c2cc(N3CCCC3)c(NC(=O)c3ccccc3Cl)cc21 | inactive: 90%
COc1ccc2nc(N(Cc3cccnc3)C(=O)c3ccc(Cl)cc3)sc2c1 | inactive: 89%
CCOc1ccccc1CNC(=O)CN1C(=O)c2cccnc2Oc2ccc(Cl)cc21 | inactive: 90%
Cn1cccc1C(=O)c1cccc(Br)c1 | inactive: 69%
COc1ccc(S(=O)(=O)N2CCCCC2)cc1C(=O)NC1CCS(=O)(=O)C1 (stereo not given) | inactive: 94%
Cc1ccc(C(=O)c2cn(Cc3ccccc3)c3c(F)cc(F)cc3c2=O)cc1 | inactive: 82%
O=C(Nc1ccccc1)c1ccc(Cl)c(S(=O)(=O)Nc2ccccc2)c1 | active: 43%
CCS(=O)(=O)N1CCC2(CC1)OC(=O)C(C)=C2C(=O)NCc1ccc(OC)c(OC)c1 | inactive: 89%
Cc1ccc(NC(=O)c2nc(S(C)(=O)=O)ncc2N(Cc2ccco2)Cc2ccco2)cc1 | inactive: 44%
CN(Cc1ccccc1)c1nc2c(S(=O)(=O)c3ccccc3)nnn2c2ccsc12 | inactive: 70%
Cc1ccc(S(=O)(=O)c2nnn3c2nc(NC2CCCCC2)c2sccc23)cc1C | active: 35%
Cc1ccc(-c2nc(-c3cccs3)c(-c3cccs3)[nH]2)cc1 | inactive: 62%
Cc1cc(C)cc(OCC(=O)N(Cc2ccco2)Cc2ccccc2Cl)c1 | inactive: 73%
